Results: PubChem BioAssay AID651820 (National Center for Advancing Translational Sciences (NCATS), 2012)
Where “and” joins values, the source holds several entries; their conditions need not be identical. Identical values can stand only once. Among all 340,000 compounds or so, about 12,000 (3.5%) were called active. The shares of active, inactive and inconclusive entries below differ from those in the screen. The call rests on the fitted dose curve; in most records, active means well fitted inhibition curve with a large enough effect; inconclusive means small, poorly fitted or top-dose-only effect, or another doubt; inactive means no such curve, though single readings can be large or run the other way. Where the call is inconclusive, the potency comes from a doubtful curve fit. More than one record can exist for a structure, and the calls need not agree.

Assay: qHTS Assay for Inhibitors of Hepatitis C Virus (HCV)
Settings: Huh7.5.1 HCVcc-Cre (HCVcc is cell-culture hepatitis C virus) infection, luciferase reporter, 44 h; series mostly up to 41.8 µM
Procedure, shortened: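 Reporter virus HCVcc-Cre (~0.5 moi) infects cells exposed to compound; seeding density 1,000 cells/well with 4 h settling beforehand. Luminescence, 15 sec read, taken 44 h post-infection following a 15 min RT substrate incubation.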
Potency means the concentration at half of the fitted maximal effect; tags describe the fitted curve by direction and shape.

Row | SMILES | Potency
1 | CCCCN1C(=O)N(CCc2ccc(F)cc2)S(=O)(=O)c2cc(C(F)(F)F)ccc21 | inconclusive: 7.08 µM [inhibitor, partial curve]
2 | Cc1c(C(=O)NCc2ccc3c(c2)OCO3)oc2ccc(S(=O)(=O)N3CCCC3)cc12 | inconclusive: 11.2 µM [inhibitor, partial curve] and inconclusive: 31.6 µM [inhibitor, single point]
3 | O=C(Nc1cc(Sc2nc3ccccc3s2)cc([N+](=O)[O-])c1)c1ccccc1 | inconclusive: 10 µM [inhibitor, partial curve]
4 | COc1cc2ncnc(NCc3ccc(F)cc3)c2cc1OC | inconclusive: 31.6 µM [inhibitor, single point]
5 | O=C1OCC2=C1C(c1ccc3c(c1)OCO3)c1cc3c(cc1O2)OCO3 (stereo not given) | inconclusive: 8.91 µM [inhibitor, partial curve]
6 | COc1ccc(-c2c(C#Cc3ccsc3)c3ccccc3n2C)cc1 | inconclusive: 25.1 µM [inhibitor, partial curve]
7 | O=C(N/N=C/c1cccc(F)c1)c1csc2c1CCCC2 | inactive
8 | CN(C)CC1CCC/C(=C/c2ccc(Cl)cc2)C1=O (stereo not given) | inconclusive: 31.6 µM [inhibitor, single point]
9 | O=C(COC(=O)c1cncc(Br)c1)NCC12CC3CC(CC(C3)C1)C2 | inactive
10 | CC1=CC(C)(C)Nc2ccc(OC(=O)CN3C(=O)c4ccccc4C3=O)cc21 | active: 25.1 µM
11 | Cc1cc(C)c(S(C)(=O)=O)c(Oc2ccc(C(C)(C)C)cc2)n1 | inactive
12 | O=C(NCC1CCCO1)c1cc2c(s1)CCCC2 (stereo not given) | inactive
13 | Cc1ccc2[nH]c(=O)c(CN(Cc3ccco3)S(=O)(=O)c3c(C)ccc4nsnc34)cc2c1 | inactive and active: 7.08 µM
14 | COc1ccc(S(=O)(=O)n2nc(OC(=O)c3ccccc3Br)cc2N)cc1 | inactive
15 | CCOC(=O)C1=C(C)Nc2nnnn2C1c1ccccc1Cl (stereo not given) | inactive
16 | CCOC(=O)c1c(NC(=S)Nc2ccccc2)sc2c1CCCCC2 | inconclusive: 1.58 µM [inhibitor, partial curve, poor fit]
17 | O=C(Nc1ccccc1F)c1ccc(CN2CCc3ccccc3C2)cc1 | active: 11.2 µM
18 | CCC(=O)NC(c1ccc([N+](=O)[O-])cc1)c1c(O)ccc2ccccc12 (stereo not given) | inconclusive: 31.6 µM [inhibitor, single point]

Row | SMILES | Potency
19 | Cc1nn(C)c(C)c1CN(Cc1nc(CCC(C)C)no1)C(C)C | active: 1 µM
20 | CC(C)[C@H](NC(=O)c1ccc(Cl)c([N+](=O)[O-])c1)C(=O)NCc1ccc(Cl)cc1Cl | inconclusive: 25.1 µM [inhibitor, single point]
21 | CCCN(CCC)S(=O)(=O)c1ccc(NC(=O)c2cc(C(=O)OC)cc([N+](=O)[O-])c2)cc1 | inconclusive: 31.6 µM [inhibitor, single point]
22 | Cc1oc(-c2cc(F)cc(F)c2)nc1CN1CCN(C(=O)c2ccco2)CC1 | inconclusive: 22.4 µM [inhibitor, single point]
23 | O=C(c1ccccc1)N1CCN(C(=O)c2cc3ccccc3oc2=O)CC1 | inactive
24 | O=C(NCc1ccco1)C1CC(c2cc(C(F)(F)F)cc(C(F)(F)F)c2)=NO1 (stereo not given) | inconclusive: 10 µM [inhibitor, partial curve]
25 | CSc1sc(C)cc1C=O | inactive
26 | CCOC(=O)N1CCN(C(=O)c2ccc(Oc3ccc([N+](=O)[O-])cc3)cc2)CC1 | inconclusive: 8.91 µM [inhibitor, partial curve]
27 | O=C(COC(=O)c1ccc2c(c1)OCO2)Nc1ccccc1F | inconclusive: 35.5 µM [inhibitor, partial curve, poor fit]
28 | CCOC(=O)N1CCC(NC(=O)c2ccc3c(Cl)c4c(nc3c2)CCCC4)CC1 | inconclusive: 5.62 µM [inhibitor, single point]
29 | Cc1ccc(NC(=O)NCc2ccc3[nH]c(C)cc3c2)cc1 | inconclusive: 10 µM [inhibitor, partial curve]
30 | CCCc1cc(-c2[nH]ncc2-c2ccc3c(c2)OCCCO3)c(O)cc1OC | inconclusive: 31.6 µM [inhibitor, single point]
31 | COc1ccc(-c2nc(CS(=O)CC(=O)NCCc3ccc(OC)c(OC)c3)c(C)o2)cc1 (stereo not given) | inactive
32 | Cc1[nH]c2ccccc2c1C(=O)CN1CCC(C(N)=O)(N2CCCCC2)CC1 | inactive
33 | O=S(=O)(Nc1cccc(S(=O)(=O)N2CCCCCC2)c1)c1ccc(F)cc1F | inactive
34 | O=C(COc1cccc(Cl)c1)Nc1cc(S(=O)(=O)N2CCOCC2)ccc1N1CCOCC1 | inactive
35 | O=C(COC(=O)c1ccc([N+](=O)[O-])cc1)Nc1ccccc1C(=O)NC1CC1 | inactive
